Results from article PMC10668032.
The other results are listed elsewhere or left out. At the low end of the ranking the order means little.

What follows are sequences tested against SIX1-Q177R homeodomain (UniProt Q15475) (assay: universal protein binding microarray). Settings: Universal all-10-mer PBM (8x60K, AMADID 030236), 300 nM GST-tagged protein, Alexa Fluor 488 anti-GST; buffer, salt, pH and temperature not stated; high values mean tight binding; most listed sequences are background and not binding sites; double strand, one strand shown.
For CACGTGGA, the binding signal was 0.243 E-score.
With CCACAAAG the binding signal was -0.126 E-score.
AACTTATG showed a binding signal of -0.149 E-score.
GAATAGGA showed a binding signal of -0.215 E-score.
ACGAAGGA gave a binding signal of -0.0452 E-score.
Sequence CCAATCCC has a binding signal of -0.0489 E-score.
TATCTCCA gave a binding signal of -0.0456 E-score.
Sequence CATGGGGC has a binding signal of 0.00388 E-score.
In the case of CCGCAACA, the binding signal is reported as 0.17 E-score.
TGACGTCA gave a binding signal of 0.0147 E-score.
In the case of ACTAGCGC, the binding signal is reported as -0.116 E-score.
ACTATTTG gave a binding signal of -0.0593 E-score.
In the case of GTCGTTTA, the binding signal is reported as -0.0555 E-score.
For CGTGAAGA, the binding signal was -0.254 E-score.
In the case of AGCTGTAT, the binding signal is reported as -0.26 E-score.
For ATCGCCGG, the binding signal was 0.0629 E-score.
In the case of GCCGTAGC, the binding signal is reported as -0.146 E-score.
In the case of ACGACACA, the binding signal is reported as 0.273 E-score.
Sequence GTTAATTA has a binding signal of 0.0411 E-score.
Sequence GATGCTGC has a binding signal of -0.128 E-score.
ATTTACCC gave a binding signal of 0.127 E-score.
For GTATCCTA, the binding signal was 0.187 E-score.
CTCCGCAC gave a binding signal of -0.126 E-score.
AAAGTATT gave a binding signal of -0.198 E-score.
For ACTCCCCT, the binding signal was 0.249 E-score.
For ACAAAACG, the binding signal was -0.0378 E-score.
For TCTTTGCA, the binding signal was -0.191 E-score.
For CTGGAAAG, the binding signal was -0.207 E-score.
Sequence GCTTCCGA has a binding signal of -0.145 E-score.
CCCCGAGA gave a binding signal of 0.17 E-score.
CCCGTCGG was tested, and the binding signal was 0.0573 E-score.
Sequence GACCGTAA has a binding signal of -0.192 E-score.
Work on GGCCCGAC yielded a binding signal of -0.0945 E-score.
In the case of CCATTGAA, the binding signal is reported as -0.0388 E-score.
For AAATACCT, the binding signal was -0.0393 E-score.
In the case of GAAAGCAC, the binding signal is reported as 0.0259 E-score.
ACACGTAG was tested, and the binding signal was 0.325 E-score.
In the case of ACATCTTG, the binding signal is reported as -0.0825 E-score.
AGTTCCTA gave a binding signal of -0.201 E-score.
GGAGTAAC was tested, and the binding signal was 0.157 E-score.
CGGAGCAA showed a binding signal of -0.144 E-score.
In the case of AAGACATA, the binding signal is reported as -0.313 E-score.
Sequence ATTCCCCG has a binding signal of 0.0599 E-score.
With ATCTGACA the binding signal was 0.275 E-score.
TCGCCTAA showed a binding signal of 0.0318 E-score.
ACTCATAC gave a binding signal of -0.0846 E-score.
With ATGCTTCA the binding signal was -0.242 E-score.
AGAAAAGG was tested, and the binding signal was -0.165 E-score.
In the case of GCTGAAGC, the binding signal is reported as -0.0212 E-score.
AACGGAAG showed a binding signal of -0.112 E-score.
GGCTCCCA was tested, and the binding signal was -0.18 E-score.
In the case of AGTCCTTA, the binding signal is reported as -0.189 E-score.
Work on CGAACATA yielded a binding signal of -0.176 E-score.
GGTAAGAA was tested, and the binding signal was 0.00641 E-score.
GCTTACCC gave a binding signal of 0.137 E-score.
GCGTACAC showed a binding signal of 0.412 E-score.
CACCTAGG gave a binding signal of 0.225 E-score.
For ATAGTCAT, the binding signal was -0.189 E-score.
Sequence ACTGCTGG has a binding signal of -0.0973 E-score.
TGCCCAAA was tested, and the binding signal was -0.126 E-score.
Work on GGTGGACA yielded a binding signal of 0.137 E-score.
Work on ACTATACT yielded a binding signal of -0.00274 E-score.
CACGAGTA gave a binding signal of 0.167 E-score.
CGTTTAGA gave a binding signal of -0.194 E-score.
Sequence CCTCTACA has a binding signal of 0.137 E-score.
With AATGAGCC the binding signal was -0.137 E-score.
Work on GCACCAAC yielded a binding signal of 0.261 E-score.
Work on CACCTGGG yielded a binding signal of 0.279 E-score.
CTGAGCTC was tested, and the binding signal was -0.36 E-score.
Sequence ACGTCTAA has a binding signal of -0.0762 E-score.
GAATTCTA gave a binding signal of -0.066 E-score.
In the case of AACTACAC, the binding signal is reported as 0.445 E-score.
GTGATGGA gave a binding signal of 0.0585 E-score.
Sequence CTACGTTA has a binding signal of -0.178 E-score.
AAGCGATC showed a binding signal of -0.116 E-score.
CCCCTTGA was tested, and the binding signal was 0.0744 E-score.
ATCAAAAT showed a binding signal of -0.167 E-score.
For CGAGTACG, the binding signal was 0.19 E-score.
With ATAGTACC the binding signal was 0.113 E-score.
Sequence GCCTTACA has a binding signal of -0.00121 E-score.
For ATGCAAAC, the binding signal was -0.182 E-score.
AAGATTCC gave a binding signal of -0.177 E-score.
With ACAACAGA the binding signal was -0.25 E-score.
In the case of CCAAGACG, the binding signal is reported as 0.0133 E-score.
With ACGCACGC the binding signal was 0.0323 E-score.
Sequence AAACTCCT has a binding signal of 0.00791 E-score.
Sequence AAGTTACT has a binding signal of -0.193 E-score.
In the case of CTAGCCTC, the binding signal is reported as -0.137 E-score.
AATGATCT gave a binding signal of -0.13 E-score.
AAGCGCTT showed a binding signal of -0.126 E-score.
Sequence AGTCCATA has a binding signal of -0.0407 E-score.
With ACACTTCA the binding signal was 0.313 E-score.
CAAACCGC was tested, and the binding signal was -0.21 E-score.
AAACACGC showed a binding signal of 0.336 E-score.
Work on AAATAGCC yielded a binding signal of -0.146 E-score.
For AACGGAAT, the binding signal was -0.18 E-score.
AATAGGTC gave a binding signal of -0.0979 E-score.
Sequence GTTTCCAA has a binding signal of -0.113 E-score.
CAACCAAC showed a binding signal of -0.0983 E-score.
CGCGTTTC gave a binding signal of -0.00562 E-score.
Sequence CAATTTCA has a binding signal of -0.256 E-score.
Work on AACAACAG yielded a binding signal of -0.165 E-score.
AGCCCCGA gave a binding signal of -0.184 E-score.
For ACGCGTTA, the binding signal was 0.00453 E-score.
GGACATAC gave a binding signal of -0.00882 E-score.
Work on CACATACA yielded a binding signal of 0.144 E-score.
CAGCTAGC showed a binding signal of -0.0192 E-score.
AAACTCAA gave a binding signal of -0.0161 E-score.
Sequence CTCTCAAG has a binding signal of -0.14 E-score.
CCCTTCAA gave a binding signal of -0.0638 E-score.
CACCGGAG was tested, and the binding signal was 0.328 E-score.
In the case of CTCAGTCA, the binding signal is reported as -0.12 E-score.
For TCTCCCAA, the binding signal was -0.0699 E-score.
For AACTATAT, the binding signal was -0.251 E-score.
For AACCTCCG, the binding signal was 0.0373 E-score.
CAACAAAC showed a binding signal of 0.0389 E-score.
GGGTGTAA was tested, and the binding signal was 0.478 E-score.
In the case of GTTAAATA, the binding signal is reported as -0.116 E-score.
In the case of TCTGGGCA, the binding signal is reported as -0.2 E-score.
For CTACGGCC, the binding signal was -0.234 E-score.
ATGATGTA gave a binding signal of 0.0337 E-score.
ACTGATTA was tested, and the binding signal was -0.134 E-score.
For ACAAACTC, the binding signal was -0.148 E-score.
CCCAAACC showed a binding signal of -0.118 E-score.
For AGGAGCCT, the binding signal was -0.00543 E-score.
For AGGAGTTC, the binding signal was -0.00571 E-score.
Sequence ATGAAATA has a binding signal of -0.0822 E-score.
Work on GCAAGGGC yielded a binding signal of -0.0889 E-score.
With GTCCTCTA the binding signal was -0.018 E-score.
Work on AAGGGGCT yielded a binding signal of 0.0375 E-score.
With CGACCCAC the binding signal was 0.125 E-score.
CGATACCC gave a binding signal of 0.411 E-score.
With ACTTGCGC the binding signal was 0.0481 E-score.
With ACGCGCTA the binding signal was -0.179 E-score.
For GGTTAATA, the binding signal was 0.0583 E-score.
GGTTCTGA gave a binding signal of -0.0741 E-score.
Work on GACCGGGA yielded a binding signal of -0.0334 E-score.
ACGTTGTA was tested, and the binding signal was -0.222 E-score.
In the case of ACCGTCCA, the binding signal is reported as -0.053 E-score.
Sequence CTGCGTGA has a binding signal of -0.0163 E-score.
In the case of ACACTCAC, the binding signal is reported as 0.39 E-score.
CTCTAAAG was tested, and the binding signal was -0.0926 E-score.
Work on GAACAGTC yielded a binding signal of -0.167 E-score.
With CGCGGCGA the binding signal was 0.118 E-score.
AACCTGAG was tested, and the binding signal was -0.0169 E-score.
GAGCGACC was tested, and the binding signal was -0.181 E-score.
For AGGCTGCG, the binding signal was -0.0874 E-score.
GAAATACA showed a binding signal of -0.00516 E-score.
With GGATATTA the binding signal was 0.066 E-score.
With AGATGAAC the binding signal was -0.1 E-score.
Sequence ATACCCGG has a binding signal of 0.243 E-score.
Work on CTTGCGGA yielded a binding signal of -0.234 E-score.
GCGTAAGA gave a binding signal of -0.174 E-score.
For GGACCCAA, the binding signal was -0.0477 E-score.
GTCCCAAA gave a binding signal of -0.0441 E-score.
AGAATTAT showed a binding signal of 0.0382 E-score.
CCGCTCAA gave a binding signal of -0.0414 E-score.
GGACTCCA showed a binding signal of 0.105 E-score.
Sequence GATACATC has a binding signal of -0.00797 E-score.
GGACTTGA was tested, and the binding signal was -0.128 E-score.
In the case of AGAGCCAG, the binding signal is reported as -0.0317 E-score.
GCTCCGCA was tested, and the binding signal was -0.185 E-score.
Sequence GAACGATA has a binding signal of 0.0422 E-score.
For ACCCCGAG, the binding signal was 0.317 E-score.
GAAAGCGC gave a binding signal of 0.00801 E-score.
Sequence AGTGAGAC has a binding signal of -0.0247 E-score.
In the case of ATGATACG, the binding signal is reported as 0.189 E-score.
Work on CTGGGAAG yielded a binding signal of -0.0929 E-score.
ATACCAGA gave a binding signal of 0.114 E-score.
Work on CCGTAAAC yielded a binding signal of 0.0103 E-score.
With ATAGCATC the binding signal was -0.276 E-score.
CCGCACGC gave a binding signal of -0.0367 E-score.
